# Experimental data as given in the supplement of paper PMC12217912.
# This is one part of the list. The full chains were built here from the parent and the listed change. Values near 0.05 are background.
# B1: TEV protease; numbered along this chain (parent)
# chain: MGESLFKGPRDYNPISSSICHLTNESDGHTTSLYGIGFGPFIITNKHLFRRNNGTLVVQSLHGVFKVKDTTTLQQHLVDGRDMIIIRMPKDFPPFPQKLKFREPQREERICLVTTNFQTKSMSSMVSDTSCTFPSGDGIFWKHWIQTKDGQCGSPLVSTRDGFIVGIHSASNFTNTNNYFTSVPKNFMELLTNQEAQQWVSGWRLNADSVLWGGHKVFMVKPEEPFQPVKEATQL
# Variants of: B1
# Assay: raw area under fraction-flipped curve 0-4 h after induction (AUC4h, not background-subtracted), DNA-recorder readout of cleavage of the substrate (dimensionless); higher = more cleavage of the substrate by the protease variant
# Settings: temperature: 34 °C; time window: 0-4 h after rhamnose induction
# 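Also: Bxb1 expression induced with 0.2% (w/v) L-rhamnose at OD600 near 0.5, cultures sampled hourly, flipped fraction per protease–substrate barcode pair counted by paired-end Illumina sequencing.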
Variant,area with substrate ENLYEQS,area with substrate ENLYGQS,area with substrate ENLYLQS,area with substrate ENLYMQS,area with substrate ENLYPQS,area with substrate ENLYRQS,area with substrate ENLYTQS,area with substrate ENLYVQS,area with substrate ENLYKQS,area with substrate ENLYSQS
MGESLFKGPRDYNPISSSICHLTNESDGHTTSLLGIGFGPFIITNKHLFRRNNGTLVVQSLHGVFKVKDTTTLQQHLVDGRDMIIIRMPKDFPPFPQKLKFREPQREERICLVTTNFQTKSMSSMVSDTSCTFPSGDGIFWKHWIQTKDGQCGSPLVSTRDGFIVGIHSASNFTNTNNYFTSVPKNFMELLTNQEAQQWVSGWRLNADSVLWGGHKVFMVKPEEPFQPVKEATQL [Y34L],0.0578,0.0793,0.0534,0.0642,0.0564,0.0555,0.0617,0.11,,
MGESLFKGPRDYNPISSSICHLTNESDGHTTSLYGIGFGPFIITNKHLFRRNNGTLVPQSLHGVFKVKDTTTLQQHLVDGRDMIIIRMPKDFPPFPQKLKFREPQREERICLVTTNFQTKSMSSMVSDTSCTFPSGDGIFWKHWIQTKDGQCGSPLVSTRDGFIVGIHSASNFTNTNNYFTSVPKNFMELLTNQEAQQWVSGWRLNADSVLWGGHKVFMVKPEEPFQPVKEATQL [V58P],,0.0198,,0.0289,,,,,0.0233,0.0157
MGESLFKGPRDYNPISSSICHLTNESDGHTTSLYGIGFGPFIITNKHLFRRNNGTLVVQSLHGVFKVKDTTTLQQHLVDGRDMIIIRMPKDFPPFPQKLKFREPQREERICLVTTNFQTKSMSSMVSDTSCTFPSGDGIFWKHWIQTKDGQCGSPLVSTRDGFIVGIHSASNFTNTNNYFTSVPKYFMELLTNQEAQQWVSGWRLNADSVLWGGHKVFMVKPEEPFQPVKEATQL [N186Y],,0.066,,,,,,,0.0769,
MGESLFKGPRDYNPISSSICHLTNESDGHTTSLYGIGFGPFIITNKHLFRRNNGTLVVQSLHGVFKVKDTTTLQQHLVDGRDMIIIRMPKDFPPFPQKLKFREPQREERICLVTTNFQTKSMSSMVSDTSCTFPSGDGIFWKHWIQTKDGQYGSPLVSTRDGFIVGIHSASNFTNTNNYFTSVPKNFMELLTNQEAQQWVSGWRLNADSVLWGGHKVFMVKPEEPFQPVKEATQL [C152Y],,0.0548,,,,,,0.0563,0.0798,0.0717
MGESLFKGPRDYNPISSSICHLTNESDGHTTSLYGIGFGPFIITNKHLFRRNNGTLVVQSLHGVFKVKDTTTLQQHLVDGRDMIIIRFPKDFPPFPQKLKFREPQREERICLVTTNFQTKSMSSMVSDTSCTFPSGDGIFWKHWIQTKDGQCGSPLVSTRDGFIVGIHSASNFTNTNNYFTSVPKNFMELLTNQEAQQWVSGWRLNADSVLWGGHKVFMVKPEEPFQPVKEATQL [M88F],0.066,0.0608,,,0.0674,,,0.0913,0.0814,0.0801
MGESLFKGPRDYNPISSSICHLTNESDGHTTSLYGIGFGPFIITNNHLFRRNNGTLVVQSLHGVFKVKDTTTLQQHLVDGRDMIIIRMPKDFPPFPQKLKFREPQREERICLVTTNFQTKSMSSMVSDTSCTFPSGDGIFWKHWIQTKDGQCGSPLVSTRDGFIVGIHSASNFTNTNNYFTSVPKNFMELLTNQEAQQWVSGWRLNADSVLWGGHKVFMVKPEEPFQPVKEATQL [K46N],,0.0608,,,,0.0739,,,0.0568,0.0879
MGESLFKGPRDYNPISSSICHLTNESDGHTTSLYGIGFGPFIITNKHLFRRNNGTLVVQSLHGVFKVKDTTTLQQHLVDGRDMIIIRMPKDFPPFPQKLKFREPQREERICLVTTNFQTKSMSSMVSDTSCTFPSGDGIFWKHWIQTKDGQCGSPLVSTRDGFIVGIHSASNFTNTNNYFTSVPKNFMELLTNQYAQQWVSGWRLNADSVLWGGHKVFMVKPEEPFQPVKEATQL [E195Y],0.0531,0.0629,,,0.0716,0.059,0.0856,,0.0599,
MGESLFKGPRDYNPISSSICHLTNESDGHTTSLYGIGFGPFIITNKHLFRRNNGTLVVQSLHGVFKVKDTTTLQQHLVDGRDMIIIRMPKDFPPFPQKLKFREPQREERICLVTTNFQTKSMSSMVSDTSCTFPSGDGIFWKHWIQTKDGQCGSPLVSTRDGFIVGIHSASNFTNTNNYFTSVPKNFMELLTNQEAQQWVSGWRLNADSVLWGGHCVFMVKPEEPFQPVKEATQL [K216C],0.0677,0.0773,,,,,,,,
MGESLFKMPRDYNPISSSICHLTNESDGHTTSLYGIGFGPFIITNKHLFRRNNGTLVVQSLHGVFKVKDTTTLQQHLVDGRDMIIIRMPKDFPPFPQKLKFREPQREERICLVTTNFQTKSMSSMVSDTSCTFPSGDGIFWKHWIQTKDGQCGSPLVSTRDGFIVGIHSASNFTNTNNYFTSVPKNFMELLTNQEAQQWVSGWRLNADSVLWGGHKVFMVKPEEPFQPVKEATQL [G8M],0.0767,0.0669,,,,0.0217,,,0.0398,0.0679
MGESLFKCPRDYNPISSSICHLTNESDGHTTSLYGIGFGPFIITNKHLFRRNNGTLVVQSLHGVFKVKDTTTLQQHLVDGRDMIIIRMPKDFPPFPQKLKFREPQREERICLVTTNFQTKSMSSMVSDTSCTFPSGDGIFWKHWIQTKDGQCGSPLVSTRDGFIVGIHSASNFTNTNNYFTSVPKNFMELLTNQEAQQWVSGWRLNADSVLWGGHKVFMVKPEEPFQPVKEATQL [G8C],,0.0502,,0.0855,,,,,,0.0696
MGESLFKGPRDYNPISSSICHLTNESDGHTTSLYGIGFGPFIITNKHLFRRNNGTLVVQSLHGVFKVKDTTTLQQHLVDGRDMIIIRMPKDFPPFPQKLKFREPQREERICLVHTNFQTKSMSSMVSDTSCTFPSGDGIFWKHWIQTKDGQCGSPLVSTRDGFIVGIHSASNFTNTNNYFTSVPKNFMELLTNQEAQQWVSGWRLNADSVLWGGHKVFMVKPEEPFQPVKEATQL [T114H],0.0618,0.0653,,0.0684,,,,,,0.0932

# Same assay, conditions: temperature: 34 °C; time window: 0-4 h after rhamnose induction
Variant,area with substrate ENLYWQS,area with substrate ENLYHQS,area with substrate ENLYYQS,area with substrate ENLYIQS,area with substrate ENLYNQS,area with substrate ENLYQQS
MGESLFKGPRDYNPISSSICHLTNESDGHTTSLYGIGFGPFIITNKHLFRRNNGTLVPQSLHGVFKVKDTTTLQQHLVDGRDMIIIRMPKDFPPFPQKLKFREPQREERICLVTTNFQTKSMSSMVSDTSCTFPSGDGIFWKHWIQTKDGQCGSPLVSTRDGFIVGIHSASNFTNTNNYFTSVPKNFMELLTNQEAQQWVSGWRLNADSVLWGGHKVFMVKPEEPFQPVKEATQL [V58P],0.0206,,,,,
MGESLFKGPRDYNPISSSICHLTNESDGHTTSLYGIGFGPFIITNKHLFRRNNGTLVVQSLHGVFKVKDTTTLQQHLVDGRDMIIIRMPKDFPPFPQKLKFREPQREERICLVTTNFQTKSMSSMVSDTSCTFPSGDGIFWKHWIQTKDGQCGSPLVSTRDGFIVGIHSASNFTNTNNYFTSVPKYFMELLTNQEAQQWVSGWRLNADSVLWGGHKVFMVKPEEPFQPVKEATQL [N186Y],0.0794,0.0615,0.0877,,,
MGESLFKGPRDYNPISSSICHLTNESDGHTTSLYGIGFGPFIITNKHLFRRNNGTLVVQSLHGVFKVKDTTTLQQHLVDGRDMIIIRMPKDFPPFPQKLKFREPQREERICLVTTNFQTKSMSSMVSDTSCTFPSGDGIFWKHWIQTKDGQYGSPLVSTRDGFIVGIHSASNFTNTNNYFTSVPKNFMELLTNQEAQQWVSGWRLNADSVLWGGHKVFMVKPEEPFQPVKEATQL [C152Y],,0.0815,,0.0564,0.054,0.0575
MGESLFKGPRDYNPISSSICHLTNESDGHTTSLYGIGFGPFIITNKHLFRRNNGTLVVQSLHGVFKVKDTTTLQQHLVDGRDMIIIRFPKDFPPFPQKLKFREPQREERICLVTTNFQTKSMSSMVSDTSCTFPSGDGIFWKHWIQTKDGQCGSPLVSTRDGFIVGIHSASNFTNTNNYFTSVPKNFMELLTNQEAQQWVSGWRLNADSVLWGGHKVFMVKPEEPFQPVKEATQL [M88F],0.0605,0.0558,,,0.0613,
MGESLFKGPRDYNPISSSICHLTNESDGHTTSLYGIGFGPFIITNNHLFRRNNGTLVVQSLHGVFKVKDTTTLQQHLVDGRDMIIIRMPKDFPPFPQKLKFREPQREERICLVTTNFQTKSMSSMVSDTSCTFPSGDGIFWKHWIQTKDGQCGSPLVSTRDGFIVGIHSASNFTNTNNYFTSVPKNFMELLTNQEAQQWVSGWRLNADSVLWGGHKVFMVKPEEPFQPVKEATQL [K46N],,0.0612,0.0701,,0.0625,
MGESLFKGPRDYNPISSSICHLTNESDGHTTSLYGIGFGPFIITNKHLFRRNNGTLVVQSLHGVFKVKDTTTLQQHLVDGRDMIIIRMPKDFPPFPQKLKFREPQREERICLVTTNFQTKSMSSMVSDTSCTFPSGDGIFWKHWIQTKDGQCGSPLVSTRDGFIVGIHSASNFTNTNNYFTSVPKNFMELLTNQYAQQWVSGWRLNADSVLWGGHKVFMVKPEEPFQPVKEATQL [E195Y],,,0.0539,,,
MGESLFKMPRDYNPISSSICHLTNESDGHTTSLYGIGFGPFIITNKHLFRRNNGTLVVQSLHGVFKVKDTTTLQQHLVDGRDMIIIRMPKDFPPFPQKLKFREPQREERICLVTTNFQTKSMSSMVSDTSCTFPSGDGIFWKHWIQTKDGQCGSPLVSTRDGFIVGIHSASNFTNTNNYFTSVPKNFMELLTNQEAQQWVSGWRLNADSVLWGGHKVFMVKPEEPFQPVKEATQL [G8M],0.0819,0.0736,,0.0933,0.0438,
MGESLFKCPRDYNPISSSICHLTNESDGHTTSLYGIGFGPFIITNKHLFRRNNGTLVVQSLHGVFKVKDTTTLQQHLVDGRDMIIIRMPKDFPPFPQKLKFREPQREERICLVTTNFQTKSMSSMVSDTSCTFPSGDGIFWKHWIQTKDGQCGSPLVSTRDGFIVGIHSASNFTNTNNYFTSVPKNFMELLTNQEAQQWVSGWRLNADSVLWGGHKVFMVKPEEPFQPVKEATQL [G8C],0.0746,,,0.0916,,0.0615
MGESLFKGPRDYNPISSSICHLTNESDGHTTSLYGIGFGPFIITNKHLFRRNNGTLVVQSLHGVFKVKDTTTLQQHLVDGRDMIIIRMPKDFPPFPQKLKFREPQREERICLVHTNFQTKSMSSMVSDTSCTFPSGDGIFWKHWIQTKDGQCGSPLVSTRDGFIVGIHSASNFTNTNNYFTSVPKNFMELLTNQEAQQWVSGWRLNADSVLWGGHKVFMVKPEEPFQPVKEATQL [T114H],0.0769,0.0821,,0.0956,,
